“And” between values parts separate entries of the source, which are not always exact repeats. Identical values can stand only once. Some of the results follow. Shown are side measurements of this screen, not its main read-out; they come without a call.

What all share (experiment): Primary Screen for Target Class Profiling of Small Molecule Inhibitors of Methyltransferases
For assay [1], the target named is Glycine N-methyltransferase (Homo sapiens) (UniProt Q14749). As to conditions: purified enzyme, MTase-Glo SAH luminescence; measured here: GNMT inhibition; at 40 µM; stronger effect = lower value. The procedure, abridged:
(§1)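 Each enzyme was reacted with SAM and its substrate, with compounds tested once at 40 uM; SAH formed was read by MTase-Glo luminescence.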

Assay [2] addresses Guanidinoacetate N-methyltransferase (Homo sapiens) (UniProt Q14353). As to conditions: purified enzyme, MTase-Glo SAH luminescence; measured here: GAMT inhibition; at 40 µM; stronger effect = lower value. The procedure, abridged: as §1
Assay [3] addresses Histamine N-methyltransferase (Homo sapiens) (UniProt P50135). As to conditions: purified enzyme, MTase-Glo SAH luminescence; measured here: HNMT inhibition; at 40 µM; stronger effect = lower value. The procedure, abridged: as §1
For assay [4], the target named is Nicotinamide N-methyltransferase (Homo sapiens) (UniProt P40261). Particulars: purified enzyme, MTase-Glo SAH luminescence; measured here: NNMT inhibition; at 40 µM; stronger effect = lower value. A digest of the protocol:
as §1

The target of assay [5] is Phenylethanolamine N-methyltransferase (Homo sapiens) (UniProt P11086). Particulars: purified enzyme, MTase-Glo SAH luminescence; measured here: PNMT inhibition; at 40 µM; stronger effect = lower value. The procedure, abridged: as §1
% is set by controls: 0 for no effect and ±100 for the full control effect.

With `CCCOc1ccccc1-c1nc2n[nH]nc2c(=O)[nH]1`, the activity change, negative = inhibition in assay [1] was -7.58%; in assay [2] it was 10.4%; in assay [3] it was 0.284%; in assay [4] it was -2.85%; in assay [5], 6.16%.

For the compound `Cc1ccc(C(=O)NCCn2c(C)cnc2C)s1`, the activity change, negative = inhibition is -6.79% in assay [1]; -9.71% in assay [2]; -16.2% in assay [3]; -12.8% in assay [4]; -4.1% in assay [5].

For `NS(=O)(=O)c1ccc(-n2nc(C(F)(F)F)cc2-c2ccc(Cl)cc2)cc1`, the activity change, negative = inhibition is 3.94% and 0.34% in assay [1]; 10.2% and 6.87% in assay [2]; 9.16% and 10.7% in assay [3]; -15.6% and -15.8% in assay [4]; -3.86% and 7.84% in assay [5].

For `O=c1[nH]c2ccc(S(=O)(=O)NCc3cccnc3)cc2[nH]1`, the activity change, negative = inhibition in assay [1] is -4.54%; in assay [2], 0%; in assay [3], 2.19%; in assay [4], 7.14%; in assay [5] it was -6.82%.

In the case of `CCC(C(=O)NCCc1ccccc1)n1ccc2cc(S(=O)(=O)N3CCCCC3)ccc21` (stereo not given), the activity change, negative = inhibition in assay [1] was found to be 2.75%; in assay [2], 5.88%; in assay [3] it was 1.25%; in assay [4], 0.158%; in assay [5] it was 1.96%.

Regarding `COc1ccccc1[C@H](c1cccc2ccccc12)[C@@](C)(C#N)C(=O)N1CCC(c2cccc(C(F)(F)F)c2)CC1`, the activity change, negative = inhibition in assay [1] was 1.06%; in assay [2] it was -2.31%; in assay [3] it was 1.57%; in assay [4], -37.5%; in assay [5], -5.97%.

In the case of `COc1cccc(C(=O)NCCN2CCN(c3ccc(Cl)cc3)CC2)c1`, the activity change, negative = inhibition in assay [1] is 1.84%; in assay [2], 11.4%; in assay [3], 5.26%; in assay [4] it was 0.482%; in assay [5] it was 12.8%.

For `COc1nc2nc(CCc3ccccc3)n(C)c2cc1-c1ccnn1C`, the activity change, negative = inhibition is -42.5% in assay [1]; -3.52% in assay [2]; -17.3% in assay [3]; -25% in assay [4]; -26.1% in assay [5].

For `CCc1ccc(N2C(=O)c3cc(C(=O)OC)nn3CC2(C)C(=O)NC2CCCCC2)cc1` (stereo not given), the activity change, negative = inhibition in assay [1] came out at 6.84%; in assay [2] it was 1.26%; in assay [3] it was 12.3%; in assay [4] it was 11%; in assay [5] it was 9.69%.

In the case of `Cc1ccc(N2C(=O)c3cc4ccccc4n3CC2(C)C(=O)NC2CCCC2)c(C)c1` (stereo not given), the activity change, negative = inhibition is 14.6% in assay [1]; 3.73% in assay [2]; -2.54% in assay [3]; -1.17% in assay [4]; -3.35% in assay [5].

Consider `COc1ccccc1CNC(=O)C1c2c(n(C)c3ccccc23)SCC(=O)N1CCc1ccc(Cl)cc1` (stereo not given), for which the activity change, negative = inhibition in assay [1] was determined as 8.63%; in assay [2] it was 0.043%; in assay [3] it was 2.75%; in assay [4] it was 0.849%; in assay [5], 3.67%.

Take `C=CC1(C)CC(O)C2(CCC3C(C)(C(=O)O)CCCC3(C)C2=O)C1` (stereo not given): the activity change, negative = inhibition in assay [1] was -1.17%; in assay [2], -9.69%; in assay [3], 1.74%; in assay [4], -18%; in assay [5] it was -0.991%.

Consider `Cc1cnn(-c2ccccc2)c1NC(=O)COCc1ccccc1`, for which the activity change, negative = inhibition in assay [1] was 1.55%; in assay [2], 3.45%; in assay [3], -1.04%; in assay [4] it was -14.4%; in assay [5] it was -8%.

For the compound `CC(C)CNCc1ccc(-c2ccccc2S(=O)(=O)N2CCCC2)cc1`, the activity change, negative = inhibition was -0.34% in assay [1]; 0.199% in assay [2]; -32.9% in assay [3]; -13.8% in assay [4]; -5.13% in assay [5].

Regarding `CNC(=O)[C@@H]1CN(C(=O)Cc2c[nH]c3ccccc23)C[C@H]1COC`, the activity change, negative = inhibition in assay [1] is 0.092%; in assay [2], -0.769%; in assay [3], 3.52%; in assay [4], 1.75%; in assay [5] it was 4.37%.

Consider `CCCn1c(=O)c2ccc(Cl)cc2n2c(=O)n(CC(=O)Nc3cccc(F)c3)nc12`, for which the activity change, negative = inhibition in assay [1] was -2.63%; in assay [2], -1.46%; in assay [3], 11.7%; in assay [4], -3.69%; in assay [5] it was -2.64%.

On to `CCCn1c(=O)c2cc(F)ccc2n2c(SCc3c(F)cccc3Cl)nnc12`, for which the activity change, negative = inhibition in assay [1] was -36.8%; in assay [2], 0%; in assay [3] it was 2.57%; in assay [4] it was -14.4%; in assay [5], 2.07%.

Take `CCOC(=O)c1cc2n(n1)CC(C)(C(=O)NCc1ccc(C)cc1)N(Cc1cccc(OC)c1)C2=O` (stereo not given): the activity change, negative = inhibition in assay [1] was -2.7%; in assay [2], 6.89%; in assay [3], 2.86%; in assay [4], -4.22%; in assay [5], -0.25%.

For the compound `COC(=O)c1cc(COc2cc3oc(=O)cc(-c4ccccc4)c3cc2Cl)c(C)o1`, the activity change, negative = inhibition was 2.27% in assay [1]; 1.28% in assay [2]; 1.23% in assay [3]; -1.73% in assay [4]; -1.55% in assay [5].

`COc1ccccc1CNS(=O)(=O)c1ccc2c(c1)n(C)c(=O)n2C`: the activity change, negative = inhibition in assay [1] was -6.18%; in assay [2], -0.78%; in assay [3], -4.02%; in assay [4], -7.92%; in assay [5], -9.56%.

`O=C(c1ccc(F)c(Cl)c1)N1C[C@@H](CO)[C@H](c2ccccn2)C1`: the activity change, negative = inhibition in assay [1] was -1.23%; in assay [2], 0.9%; in assay [3] it was 0.364%; in assay [4], 2.88%; in assay [5], -0.215%.

Take `C/C1=C\CCC2=CC(OC2=O)C(C)(C)/C=C/C1=O` (stereo not given): the activity change, negative = inhibition was 4.06% in assay [1]; -6.56% in assay [2]; 8.73% in assay [3]; -9.53% in assay [4]; 0.069% in assay [5].

Turning to `CN(c1ncccc1CNC(=O)C1CCOCC1)C1CCCCC1`, the activity change, negative = inhibition in assay [1] was 0.171%; in assay [2] it was 0.771%; in assay [3], 0.557%; in assay [4], -3.28%; in assay [5] it was 0.896%.

For `CC(=O)[C@@H]1CC[C@]2(C(=O)O)CC[C@]3(C)C(CCC4[C@@]5(C)CC[C@H](O)C(C)(C)C5CC[C@]43C)C12` (stereo not given in full), the activity change, negative = inhibition in assay [1] was 4.16%; in assay [2] it was 5.34%; in assay [3], 9.14%; in assay [4], -7.21%; in assay [5], 3.26%.

As for `Cc1ncc(C(=O)N[C@H]2CC[C@H]2NC2CCCC2)c(-c2ccccc2)n1`, the activity change, negative = inhibition in assay [1] is -2.45%; in assay [2], -0.746%; in assay [3] it was -1.06%; in assay [4] it was -6.68%; in assay [5], -12.4%.

On to `CCCn1c(=O)c2ccccc2n2c(SCC(=O)N3CCN(c4ccccc4F)CC3)nnc12`, for which the activity change, negative = inhibition in assay [1] was -0.541%; in assay [2], 3.89%; in assay [3], 1.8%; in assay [4], -4.18%; in assay [5] it was -0.208%.

On to `COC(=O)C1=CO[C@@H](O[C@@H]2O[C@H](CO)[C@@H](O)[C@H](O)[C@H]2O)[C@H]2[C@@H]1C=C[C@]21C=C([C@H](C)OC(=O)/C=C/c2ccc(O[C@@H]3O[C@H](CO)[C@@H](O)[C@H](O)[C@H]3O)cc2)C(=O)O1`, for which the activity change, negative = inhibition is 2.95% in assay [1]; 3.58% in assay [2]; 10.9% in assay [3]; -9.27% in assay [4]; 6.33% in assay [5].

Regarding `CC(C)c1ccccc1NC(=O)N1CCOC(C(F)(F)F)C1` (stereo not given), the activity change, negative = inhibition in assay [1] was -0.227%; in assay [2], -1.81%; in assay [3], 0.707%; in assay [4], 2.76%; in assay [5], 2.6%.

Consider `CC(C)n1c(=O)c2ccc(C(=O)NC3CCCCC3)cc2n2c(=O)n(Cc3ccccc3Cl)nc12`, for which the activity change, negative = inhibition is -0.53% in assay [1]; 0% in assay [2]; 3% in assay [3]; 0.367% in assay [4]; 3.97% in assay [5].

Regarding `CCOCCCNC(=O)C1(C)Cn2c(ccc2-c2ccco2)C(=O)N1c1ccc(C)c(C)c1` (stereo not given), the activity change, negative = inhibition in assay [1] was -7.88%; in assay [2], 3.96%; in assay [3], 0.588%; in assay [4] it was 4.99%; in assay [5] it was -0.398%.

The values are drawn from PubChem BioAssay AID1745853 (National Center for Advancing Translational Sciences (NCATS), 2022).
